Patent US4551445A, “Derivatives of arginine vasopressin antagonists” (The Medical College of Ohio, priority 1983, dated 1985)
Not every detail of the peptide structures is certain; ends, links or a residue may be inferred. Starred links: 1 amine or outer side, 2 acyl side, 3 side chain; linkers in the order of their positions; H or OH if unused. Positions of bridges follow the written chain, without caps; N, C: chain ends. Non-standard residues stand in square brackets, D forms with d. Residues, ends and D or L forms follow the SMILES beside them. X1 = O=C(CC1(S[*:2])CCCCC1)[*:1]; X2 = O=C(CC1(S[*:2])CCCC1)[*:1]; Cha = N[C@@H](CC1CCCCC1)C(=O)O; Nle = CCCC[C@H](N)C(=O)O; Orn = NCCC[C@H](N)C(=O)O

Experiments:
[1] = test system: antidiuretic response to arginine vasopressin (ADH); test: Anti-antidiuretic: antagonism of the antidiuretic response to subsequent injections of vasopressin; type: in vivo, rats
Experimental: Activity as antidiuretic agonists was determined by intravenous injection of the compounds being evaluated in ethanol-anesthesized water-loaded rats in accordance with Sawyer, Endocrinology, vol. 63 (1958) at 694. Antagonism of the response to subsequent injections of vasopressin was tested as described by Sawyer et al., Science, vol. 212 (1981) at 49.
(§1) Antagonistic potencies were determined and expressed as "effective doses" and pA2 values. The "effective dose" is defined as the dose (in nanomoles per kilogram) that reduces the response seen from 2x units of agonist injected 20 min after the dose of antagonist to the response with 1x units of agonist. Estimated in vivo "pA2 " values represent the negative logarithms of the effective doses, divided by the estimated volume of distribution (67 ml/kg).

[2] = test system: vasopressor response to arginine vasopressin; test: Antivasopressor: antagonism to the vasopressor response (Dyckes et al.); type: in vivo; conditions: for Antivasopressor Potency ED / AD/VP: Table 2; for Antivasopressor Potency ED / Antivasopressor ED: effective dose; for AD/VP: ratio, values fit antivasopressor ED / anti-antidiuretic ED
Experimental: Antagonism to the vasopressor response was estimated in accordance with Dyckes et al., J. Med. Chem., vol. 17 (1974) at 969. The values are expressed as pA2 values, defined as in Schild et al., Br. J. Pharmacol., vol. 2 (1947) at 189.
as §1

[3] = Table 1, dose reducing response to 2x units of agonist, injected 20 min later, to response with 1x units

SMILES	Anti-Antidiuretic ED ([1]; Table 2, effective dose)	Antivasopressor Potency ED [2]	AD/VP [2]	Anti-Antidiuretic ED [1, 3] [nmol/kg]	Antivasopressor ED ([2]; Table 1) [nmol/kg]	Anti-Antidiuretic pA2 ([1]; Table 1, estimated in vivo pA2, volume of distribution 67 ml/kg)	Antivasopressor pA2 ([2]; Table 1, estimated in vivo pA2)
N=C(N)NCCC[C@H](NC(=O)[C@@H]1CCCN1C(=O)[C@@H]1CSSC2(CCCCC2)CC(=O)N[C@H](Cc2ccccc2)C(=O)N[C@@H](Cc2ccccc2)C(=O)N[C@@H](Cc2ccc(O)cc2)C(=O)N[C@@H](CC(N)=O)C(=O)N1)C(=O)NCC(N)=O [d(CH2)5 D-Phe^2 Tyr^4 AVP, [1-(β-mercapto-β,β-cyclopentamethylenepropionic acid), 2-D-phenylalanine, 4-tyrosine]-arginine vasopressin] ([dF]FYNCPRG-NH2; linker N-5 via X1)	~ 178 nmoles/Kg	22 ± 6 nmol/kg	0.12				
CCOc1ccc(C[C@H]2NC(=O)CC3(CCCCC3)SSC[C@@H](C(=O)N3CCC[C@@H]3C(=O)N[C@@H](CCCNC(=N)N)C(=O)NCC(N)=O)NC(=O)[C@H](CC(N)=O)NC(=O)[C@H](C(C)C)NC(=O)[C@H](Cc3ccccc3)NC2=O)cc1 [d(CH2)5 D-Tyr(Et)^2 D-Pro^7 VAVP] ([dY](Et)FVNC[dP]RG-NH2; linker N-5 via X1)				1.6 ± 0.03	0.55 ± 0.09		
CC[C@@H](C)[C@H]1NC(=O)CC2(CCCCC2)SSC[C@@H](C(=O)N2CCC[C@H]2C(=O)N[C@@H](CCCNC(=N)N)C(=O)NCC(N)=O)NC(=O)[C@H](CC(N)=O)NC(=O)[C@H]([C@@H](C)CC)NC(=O)[C@H](Cc2ccccc2)NC1=O [d(CH2)5 D-Ile^2 Ile^4 AVP, [1-(β-mercapto-β,β-cyclopentamethylenepropionic acid), 2-D-isoleucine, 4-isoleucine]-arginine vasopressin] ([dI]FINCPRG-NH2; linker N-5 via X1)	0.67 ± 0.15 nmol/kg	26 ± 3 nmol/kg	39				
CC[C@@H](C)[C@H]1NC(=O)CC2(CCCCC2)SSC[C@@H](C(=O)N2CCC[C@H]2C(=O)N[C@@H](CCCN)C(=O)NCC(N)=O)NC(=O)[C@H](CC(N)=O)NC(=O)[C@H](C(C)C)NC(=O)[C@H](Cc2ccccc2)NC1=O [d(CH2)5 D-Ile^2 Val^4 Orn^8 VP] ([dI]FVNCP[Orn]G-NH2; linker N-5 via X1)	1.5 ± 0.2 nmol/kg	16 + 2 nmoles/Kg	11				
N=C(N)NCCC[C@H](NC(=O)[C@@H]1CCCN1C(=O)[C@@H]1CSSC2(CCCCC2)CC(=O)N[C@H](Cc2ccccc2)C(=O)N[C@@H](Cc2ccccc2)C(=O)N[C@@H](Cc2ccccc2)C(=O)N[C@@H](CC(N)=O)C(=O)N1)C(=O)NCC(N)=O [d(CH2)5 D-Phe^2 Phe^4 AVP, [1-(β-mercapto-β,β-cyclopentamethylenepropionic acid), 2-D-phenylalanine, 4-phenylalanine]-arginine vasopressin] ([dF]FFNCPRG-NH2; linker N-5 via X1)	65 ± 15 nmol/kg	25 ± 4 nmol/kg	0.5				
C[C@@H]1NC(=O)[C@H](Cc2ccccc2)NC(=O)[C@@H](Cc2ccccc2)NC(=O)CC2(CCCCC2)SSC[C@@H](C(=O)N2CCC[C@H]2C(=O)N[C@@H](CCCNC(=N)N)C(=O)NCC(N)=O)NC(=O)[C@H](CC(N)=O)NC1=O [d(CH2)5 D-Phe^2 Ala^4 AVP, [1-(β-mercapto-β,β-cyclopentamethylenepropionic acid), 2-D-phenylalanine, 4-alanine]-arginine vasopressin] ([dF]FANCPRG-NH2; linker N-5 via X1)	2.2 ± 0.7 nmol/kg	1.9 ± 0.2 nmol/kg	0.9				
CC[C@@H](C)[C@H]1NC(=O)CC2(CCCCC2)SSC[C@@H](C(=O)N2CCC[C@H]2C(=O)N[C@@H](CCCNC(=N)N)C(=O)NCC(N)=O)NC(=O)[C@H](CC(N)=O)NC(=O)[C@H]([C@@H](C)O)NC(=O)[C@H](Cc2ccccc2)NC1=O [d(CH2)5 D-Ile^2 Thr^4 AVP, [1-(β-mercapto-β,β-cyclopentamethylenepropionic acid), 2-D-isoleucine, 4-threonine]-arginine vasopressin] ([dI]FTNCPRG-NH2; linker N-5 via X1)	0.88 ± 0.18 nmol/kg	10.5 ± 1.2 nmol/kg	12				
CCCC[C@@H]1NC(=O)[C@H](Cc2ccccc2)NC(=O)[C@@H](Cc2ccccc2)NC(=O)CC2(CCCCC2)SSC[C@@H](C(=O)N2CCC[C@H]2C(=O)N[C@@H](CCCNC(=N)N)C(=O)NCC(N)=O)NC(=O)[C@H](CC(N)=O)NC1=O [d(CH2)5 D-Phe^2 Nle^4 AVP, [1-(β-mercapto-β,β-cyclopentamethylenepropionic acid), 2-D-phenylalanine, 4-norleucine]-arginine vasopressin] ([dF]F[Nle]NCPRG-NH2; linker N-5 via X1)	5.6 ± 1.3 nmol/kg	2.1 ± 0.3 nmol/kg	0.4				
CC[C@@H](C)[C@H]1NC(=O)CC2(CCCCC2)SSC[C@@H](C(=O)N2CCC[C@H]2C(=O)N[C@@H](CCCNC(=N)N)C(=O)NCC(N)=O)NC(=O)[C@H](CC(N)=O)NC(=O)[C@H](C(C)C)NC(=O)[C@H](Cc2ccccc2)NC1=O [d(CH2)5 D-Ile^2 VAVP, [1-(β-mercapto-β,β-cyclopentamethylenepropionic acid), 2-D-isoleucine, 4-valine]-arginine vasopressin] ([dI]FVNCPRG-NH2; linker N-5 via X1)	0.70 ± 0.08 nmol/kg	8.2 ± 1.4 nmol/kg	12				
CCOc1ccc(C[C@H]2NC(=O)CC3(CCCC3)SSC[C@@H](C(=O)N3CCC[C@H]3C(=O)N[C@H](CCCNC(=N)N)C(=O)NCC(N)=O)NC(=O)[C@H](CC(N)=O)NC(=O)[C@H](C(C)C)NC(=O)[C@H](Cc3ccccc3)NC2=O)cc1 [d(CH2)4 D-Tyr(Et)^2 VDAVP] ([dY](Et)FVNCP[dR]G-NH2; linker N-5 via X2)				0.97 ± 0.19	0.79 ± 0.08	7.89 ± 0.11	7.93 ± 0.05
COc1ccc(C[C@H]2NC(=O)CC3(CCCCC3)SSC[C@@H](C(=O)N3CCC[C@H]3C(=O)N[C@@H](CCCNC(=N)N)C(=O)NCC(N)=O)NC(=O)[C@H](CC(N)=O)NC(=O)[C@H](C(C)C)NC(=O)[C@H](Cc3ccccc3)NC2=O)cc1 [d(CH2)5 --D-Tyr(Me)VAVP] ([dY](Me)FVNCPRG-NH2; linker N-5 via X1)				1.2 ± 0.3	0.23 ± 0.04		
CCOc1ccc(C[C@@H]2NC(=O)CC3(CCCCC3)SSC[C@@H](C(=O)N3CCC[C@H]3C(=O)N[C@H](CCCNC(=N)N)C(=O)NCC(N)=O)NC(=O)[C@H](CC(N)=O)NC(=O)[C@H](C(C)C)NC(=O)[C@H](Cc3ccccc3)NC2=O)cc1 [d(CH2)5 Tyr(Et)VDAVP] (Y(Et)FVNCP[dR]G-NH2; linker N-5 via X1)				5.7 ± 0.5	0.34 ± 0.04		
N=C(N)NCCC[C@H](NC(=O)[C@@H]1CCCN1C(=O)[C@@H]1CSSC2(CCCCC2)CC(=O)N[C@H](Cc2ccccc2)C(=O)N[C@@H](Cc2ccccc2)C(=O)N[C@@H](CC2CCCCC2)C(=O)N[C@@H](CC(N)=O)C(=O)N1)C(=O)NCC(N)=O [d(CH2)5 D-Phe^2 Cha^4 AVP, [1-(β-mercapto-β,β-cyclopentamethylenepropionic acid), 2-D-phenylalanine, 4-cyclohexylalanine]-arginine vasopressin] ([dF]F[Cha]NCPRG-NH2; linker N-5 via X1)	4.6 ± 0.9 nmol/kg	9 ± 4 nmol/kg	2.0				
CCOc1ccc(C[C@H]2NC(=O)CC3(CCCCC3)SSC[C@@H](C(=O)N3CCC[C@H]3C(=O)N[C@@H](CCCNC(=N)N)C(=O)NCC(N)=O)NC(=O)[C@H](CC(N)=O)NC(=O)[C@H](C(C)C)NC(=O)[C@H](Cc3ccccc3)NC2=O)cc1 [d(CH2)5 --D-Tyr(Et)VAVP] ([dY](Et)FVNCPRG-NH2; linker N-5 via X1)				1.1 ± 0.2	0.45 ± 0.11		
COc1ccc(C[C@@H]2NC(=O)CC3(CCCCC3)SSC[C@@H](C(=O)N3CCC[C@H]3C(=O)N[C@H](CCCNC(=N)N)C(=O)NCC(N)=O)NC(=O)[C@H](CC(N)=O)NC(=O)[C@H](C(C)C)NC(=O)[C@H](Cc3ccccc3)NC2=O)cc1 [d(CH2)5 Tyr(Me)VDAVP, [1-(β-mercapto-β,β-cyclopentamethylenepropionic acid), 2-O-methyltyrosine, 4-valine, 8-D-arginine]vasopressin] (Y(Me)FVNCP[dR]G-NH2; linker N-5 via X1)				15 ± 3	0.28 ± 0.05		
N=C(N)NCCC[C@H](NC(=O)[C@@H]1CCCN1C(=O)[C@@H]1CSSC2(CCCCC2)CC(=O)N[C@H](Cc2ccccc2)C(=O)N[C@@H](Cc2ccccc2)C(=O)NCC(=O)N[C@@H](CC(N)=O)C(=O)N1)C(=O)NCC(N)=O [d(CH2)5 D-Phe^2 Gly^4 AVP, [1-(β-mercapto-β,β-cyclopentamethylenepropionic acid), 2-D-phenylalanine, 4-glycine]-arginine vasopressin] ([dF]FGNCPRG-NH2; linker N-5 via X1)	97 ± 10 nmol/kg	11 ± 2 nmol/kg	0.11				
